{"source": "the supplement of paper PMC7726561", "sequences": {"B1": {"name": "unnamed (peptide)", "chain": "LPSGDRVAVSV"}, "B2": {"name": "unnamed (peptide)", "chain": "FPNIPGKSL"}, "B3": {"name": "unnamed (peptide)", "chain": "LPNGRDTPAL"}, "B4": {"name": "unnamed (peptide)", "chain": "TPRSTVGVVAL"}, "B5": {"name": "unnamed (peptide)", "chain": "TPRDLAVPAAL"}, "B6": {"name": "unnamed (peptide)", "chain": "HNESWVLL"}, "B7": {"name": "unnamed (peptide)", "chain": "LSRPPSPLSL"}, "B8": {"name": "unnamed (peptide)", "chain": "LPSKEHVDVI"}, "B9": {"name": "unnamed (peptide)", "chain": "APAGGSPRML"}, "B10": {"name": "unnamed (peptide)", "chain": "APSPPLRAL"}, "B11": {"name": "unnamed (peptide)", "chain": "VPNATIRNVL"}, "B12": {"name": "unnamed (peptide)", "chain": "KPILSTRSL"}, "B13": {"name": "unnamed (peptide)", "chain": "SPLPVGQNSL"}, "B14": {"name": "unnamed (peptide)", "chain": "VPQPSGRTL"}, "B15": {"name": "unnamed (peptide)", "chain": "SPIQKPQGL"}, "B16": {"name": "unnamed (peptide)", "chain": "VPRETAIQF"}, "B17": {"name": "unnamed (peptide)", "chain": "TPSSRPASL"}, "B18": {"name": "unnamed (peptide)", "chain": "APSTPRITTF"}, "B19": {"name": "unnamed (peptide)", "chain": "HPRTSITVVL"}, "B20": {"name": "unnamed (peptide)", "chain": "HPDQAQAIL"}, "B21": {"name": "unnamed (peptide)", "chain": "QPMNVMTQSF"}, "B22": {"name": "unnamed (peptide)", "chain": "AVRQSVVVL"}, "B23": {"name": "unnamed (peptide)", "chain": "KPVIPAAAL"}, "B24": {"name": "unnamed (peptide)", "chain": "QLRLPGQQL"}, "B25": {"name": "unnamed (peptide)", "chain": "VPRAAFLSPL"}, "B26": {"name": "unnamed (peptide)", "chain": "IPRVVQEGDVL"}, "B27": {"name": "unnamed (peptide)", "chain": "HPINPRVAL"}, "B28": {"name": "unnamed (peptide)", "chain": "FPHPVNQVTF"}, "B29": {"name": "unnamed (peptide)", "chain": "TPSERITSL"}, "B30": {"name": "unnamed (peptide)", "chain": "FPRFSPVL"}, "B31": {"name": "unnamed (peptide)", "chain": "APRTVALTAL"}, "B32": {"name": "unnamed (peptide)", "chain": "LPSSGRSSL"}, "B33": {"name": "unnamed (peptide)", "chain": "QPSPARAPAEL"}, "B34": {"name": "unnamed (peptide)", "chain": "SPDKIPWSAL"}, "B35": {"name": "unnamed (peptide)", "chain": "LPQKAGGFL"}, "B36": {"name": "unnamed (peptide)", "chain": "APRPAGSYL"}}, "note": "Over roughly 1,400 sequences, “thermal melting temperature (Tm) of peptide-HLA complex” has its median near 60; the lowest 2% begin near 45. Some of the results follow.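 Also: cell lysates heated 10 min at 37–73 °C, remaining pHLA pulled down with pan-class I antibody, peptides quantified by DIA-MS versus 37 °C, Tm where half the complex is lost.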", "data": [{"target": "HLA-B*07:02", "test": "thermal melting temperature (Tm) of peptide-HLA complex; higher = more thermostable pHLA complex", "settings": "C1R-B*07:02", "units": {"thermal melting temperature": "°C"}, "values": [{"sequence": "B1", "thermal melting temperature": 61}, {"sequence": "B2", "thermal melting temperature": 62}, {"sequence": "B3", "thermal melting temperature": 59.2}, {"sequence": "B4", "thermal melting temperature": 59.3}, {"sequence": "B5", "thermal melting temperature": 60.4}, {"sequence": "B6", "thermal melting temperature": 45.5}, {"sequence": "B7", "thermal melting temperature": 62.3}, {"sequence": "B8", "thermal melting temperature": 44.8}, {"sequence": "B9", "thermal melting temperature": 50}, {"sequence": "B10", "thermal melting temperature": 62.3}, {"sequence": "B11", "thermal melting temperature": 59.4}, {"sequence": "B12", "thermal melting temperature": 59.9}, {"sequence": "B13", "thermal melting temperature": 62.5}, {"sequence": "B14", "thermal melting temperature": 56.9}, {"sequence": "B15", "thermal melting temperature": 56.5}, {"sequence": "B16", "thermal melting temperature": 61}, {"sequence": "B17", "thermal melting temperature": 56}, {"sequence": "B18", "thermal melting temperature": 60.9}, {"sequence": "B19", "thermal melting temperature": 58}, {"sequence": "B20", "thermal melting temperature": 53.4}, {"sequence": "B21", "thermal melting temperature": 57.4}, {"sequence": "B22", "thermal melting temperature": 58.9}, {"sequence": "B23", "thermal melting temperature": 61.1}, {"sequence": "B24", "thermal melting temperature": 52.5}, {"sequence": "B25", "thermal melting temperature": 63.6}, {"sequence": "B26", "thermal melting temperature": 63}, {"sequence": "B27", "thermal melting temperature": 58.9}, {"sequence": "B28", "thermal melting temperature": 59.5}, {"sequence": "B29", "thermal melting temperature": 57.3}, {"sequence": "B30", "thermal melting temperature": 62.5}, {"sequence": "B31", "thermal melting temperature": 62.9}, {"sequence": "B32", "thermal melting temperature": 57.9}, {"sequence": "B33", "thermal melting temperature": 58.4}, {"sequence": "B34", "thermal melting temperature": 55.7}, {"sequence": "B35", "thermal melting temperature": 60.3}, {"sequence": "B36", "thermal melting temperature": 61.8}]}]}
